The full ranking holds about 33,000 sequences; the median of “E-score (-0.5 to 0.5)” is about -0.041, and the highest 2% start at about 0.37. This is one part of the list.
Target: T1, Ecm22 (UniProt Q05958)
T1 sequence: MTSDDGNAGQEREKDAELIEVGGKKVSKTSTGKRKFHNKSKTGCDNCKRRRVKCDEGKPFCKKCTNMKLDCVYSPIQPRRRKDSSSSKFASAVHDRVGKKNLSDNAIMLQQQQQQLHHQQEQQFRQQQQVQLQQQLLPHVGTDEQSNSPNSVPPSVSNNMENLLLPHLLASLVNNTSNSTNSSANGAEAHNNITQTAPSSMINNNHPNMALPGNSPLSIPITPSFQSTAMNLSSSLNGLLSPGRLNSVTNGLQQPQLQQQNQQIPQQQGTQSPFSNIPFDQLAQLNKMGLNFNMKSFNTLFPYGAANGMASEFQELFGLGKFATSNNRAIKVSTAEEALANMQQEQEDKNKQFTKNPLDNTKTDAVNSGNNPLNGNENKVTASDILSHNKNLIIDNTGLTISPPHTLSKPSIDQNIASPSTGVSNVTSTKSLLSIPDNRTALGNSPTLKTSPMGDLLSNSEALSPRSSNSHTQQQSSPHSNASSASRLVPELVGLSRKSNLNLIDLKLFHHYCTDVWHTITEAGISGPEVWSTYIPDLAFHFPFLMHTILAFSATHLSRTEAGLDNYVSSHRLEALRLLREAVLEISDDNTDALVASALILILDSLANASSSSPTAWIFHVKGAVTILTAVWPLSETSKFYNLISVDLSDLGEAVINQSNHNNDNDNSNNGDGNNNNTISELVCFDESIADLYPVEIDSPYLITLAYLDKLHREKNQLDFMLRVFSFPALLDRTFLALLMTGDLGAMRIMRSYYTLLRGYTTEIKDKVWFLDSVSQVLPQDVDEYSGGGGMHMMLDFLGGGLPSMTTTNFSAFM
Test: PBM E-score (8-mer binding enrichment) (E-score (-0.5 to 0.5)); higher = stronger / more preferred TF binding; most listed sequences are background and not binding sites
Settings: protein concentration: 200 nM; construct: GST-full length
Method in brief: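 GST-tagged yeast TFs (full-length or DNA-binding domain) were made by PURExpress in vitro transcription/translation and applied at about 100-200 nM to universal all-10-mer Agilent arrays. The arrays were made double-stranded by primer extension, on fresh or once-stripped slides. Bound protein was detected with fluorescent anti-GST, and scans were normalised with masliner. Each ungapped eight-base word, pooled with its reverse complement, received an E-score (modified Wilcoxon-Mann-Whitney statistic) from the Universal PBM Analysis Suite.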

| Sequence | PBM E-score |
| --- | --- |
| AACGTTAG | 0.0578 |
| CGGTTCAC | -0.119 |
| CTAAATTC | -0.0281 |
| GACTAAGA | -0.0206 |
| AAGCGGAT | 0.026 |
| AAGACGTA | 0.146 |
| ATGAGGTA | -0.0168 |
| AGGTGCCC | -0.11 |
| CAGGATAG | 0.101 |
| ATGAACAT | 0.0278 |
| CAAACTAG | -0.142 |
| AGAAAGAG | -0.24 |
| ATCTTGGC | -0.115 |
| GAACAGTC | 0.0856 |
| CCCGTTTC | 0.216 |
| ATCTTTCC | -0.129 |
| ATGTGTGA | -0.203 |
| GATACGTA | 0.253 |
| AAGTAATC | -0.0689 |
| CCATGCCA | -0.205 |
| ATTCTCGC | 0.0862 |
| CAAGGTCA | -0.0865 |
| AGTGAAAG | -0.174 |
| AAGGGCGA | -0.102 |
| AGGAGCTG | -0.288 |

| Sequence | PBM E-score |
| --- | --- |
| ACAGGGCG | -0.00222 |
| CACACTCC | -0.172 |
| TCCAGGGA | -0.173 |
| ATCCCGTG | 0.137 |
| AACATATC | 0.165 |
| CGGGAGAC | -0.119 |
| GCTCGGGA | 0.179 |
| GGCATGGA | -0.107 |
| ATCCATTG | -0.159 |
| AGCGCCAG | -0.0152 |
| CTGAATGC | -0.172 |
| CCTGTCAA | 0.0138 |
| ACTCAGGC | -0.193 |
| GTTATGTA | -0.0598 |
| AGCACCCT | -0.189 |
| GCCCTGCA | -0.236 |
| CGGCTGTA | -0.0942 |
| CTCCTGAA | -0.0638 |
| AAGATACC | -0.121 |
| AACCGAAG | 0.201 |
| AGACGTAA | -0.0943 |
| GGATAGAA | 0.0638 |
| CCTGCGAG | -0.0299 |
| GCTAGACA | -0.128 |
| ACAGGCTA | -0.127 |

| Sequence | PBM E-score |
| --- | --- |
| ACCGAGAT | 0.178 |
| TGATTAAA | 0.044 |
| ATTTTAAG | -0.0605 |
| AGGTAACG | 0.107 |
| AAGGGCGT | 0.027 |
| CATTTTCG | 0.105 |
| CACTCTCG | 0.174 |
| CGCCCAAG | -0.204 |
| TCGAATAA | 0.192 |
| CCAGACAC | -0.00807 |
| CTCGGTCC | 0.336 |
| CATTACCC | -0.22 |
| CGTGATAG | 0.007 |
| CGGTTACA | 0.114 |
| CTAAACTA | -0.229 |
| CATCGCCC | -0.0849 |
| CTGACCAG | -0.133 |
| ATAGACGG | -0.0266 |
| AGCGAGAG | 0.236 |
| AGTAGAGG | -0.146 |
| GCCACGAC | 0.0782 |
| AGTTACGC | 0.071 |
| TAACTGTA | -0.0166 |
| ATTGGAAC | 0.0587 |
| AATGACCT | -0.159 |

| Sequence | PBM E-score |
| --- | --- |
| CCATGGAA | -0.178 |
| GTGTGGAA | 0.0185 |
| CTCTGTTA | -0.0575 |
| CTACATCA | -0.27 |
| AGGTGATG | -0.259 |
| GAAAGGAA | -0.0254 |
| TAGTATCA | 0.0903 |
| GCACTGTA | 0.101 |
| CTCTAATA | -0.211 |
| ACCTCGTG | 0.251 |
| AACAGCCA | -0.0145 |
| ACGACCGG | 0.23 |
| AAACTGAA | -0.0929 |
| AAGGGTTC | -0.134 |
| ACTTATTG | -0.192 |
| ATTATGTG | 0.0218 |
| ACTTCGCC | 0.0257 |
| ATGTCGTC | 0.0394 |
| GGGCCTAA | -0.249 |
| AAGGATAC | -0.0638 |
| CGAGTTCA | 0.0788 |
| CCACGATA | 0.0166 |
| CCTTTACA | -0.184 |
| CATCCGTC | 0.0509 |
| CGACAATA | 0.22 |

| Sequence | PBM E-score |
| --- | --- |
| AGATTGCC | -0.29 |
| GTGATACA | -0.0214 |
| TCGCATAA | 0.388 |
| ATGCCTGA | -0.16 |
| ATTAGCCC | -0.239 |
| CTCCCAAG | -0.199 |
| GTCCTTCA | -0.233 |
| AATACAGT | -0.0328 |
| CTCACGTA | 0.0688 |
| GACCTGCA | -0.146 |
| ACATACAA | -0.121 |
| CGAACGTC | 0.0995 |
| AAAGGGTT | -0.181 |
| AAGTTTAA | -0.226 |
| CACTCGGG | 0.0561 |
| CCCCAGCG | -0.175 |
| TACCCCAA | -0.149 |
| AAACCCTG | -0.126 |
| AAAATTAG | -0.169 |
| AGGTGCTG | -0.371 |
| CATACAAA | -0.0105 |
| AACGAGAC | 0.451 |
| ATTGCGCG | 0.148 |
| GGAAGCAA | -0.105 |
| GACACGGC | -0.13 |

| Sequence | PBM E-score |
| --- | --- |
| ATCATTTA | 0.226 |
| CATAAGGC | -0.0707 |
| AAAGATAT | -0.0162 |
| ACCTAATC | 0.0827 |
| ATGTGGAG | -0.148 |
| GAATGCCC | -0.0918 |
| TCGCAGCA | 0.0212 |
| CCAGATTC | -0.309 |
| CACGCCCG | 0.059 |
| GAAACATC | -0.136 |
| ACGGTCAA | 0.297 |
| CCGATTCG | 0.206 |
| CCTGGGAA | -0.0511 |
| AACGATAA | 0.382 |
| CATTACGA | 0.289 |
| ATAACCCG | 0.0801 |
| CCTGATCA | -0.154 |
| AAAGGATC | -0.174 |
| CGTCATCC | -0.0605 |
| AGGACGTC | -0.135 |
| AGCAGAGC | 0.0272 |
| ATAAAGGG | -0.03 |
| GCCTTGCA | -0.181 |
| ACAATGCC | -0.193 |
| AGCATCTC | -0.166 |

| Sequence | PBM E-score |
| --- | --- |
| CCTCTAAA | -0.193 |
| GCACAAAA | 0.0309 |
| ACCCTCTC | -0.214 |
| CACCATCG | -0.161 |
| GACTGTAC | 0.253 |
| CTCGCAAA | 0.319 |
| GTCCCTAA | -0.207 |
| CTTGGATA | -0.135 |
| ACCAGTAG | -0.171 |
| AAGGGTCT | -0.327 |
| GTTTAGGA | 0.152 |
| ATTGGCGA | -0.0395 |
| AGAGCGGA | 0.141 |
| AATCACCT | -0.0815 |
| AAGGACTT | -0.342 |
| ATCTCATC | -0.0663 |
| AGCCTCAT | -0.135 |
| AAACTCTC | 0.125 |
| CGAACCCA | 0.167 |
| CATGGTTA | -0.0238 |
| AGTGTGAG | -0.154 |
| CTGTACGA | 0.48 |

— the supplement of paper PMC3334620
